Here are results for 34 variants from the RNAGym collection of RNA variant scans (doi:10.1093/nar/gkz1192).

First the molecules themselves.
B1: CPEB3 Ribozyme (parent)
chain: UAACAGGGGGCCACAGCAGAAGCGUUCACGUCGCAGCCCCUGUCAGAUUCUGGUGAAUCUGCGAAUUCUGCUGUAUAUCUC

Read counts are not given, so values of variants with three or more changes are uncertain.

In this data set the parent is B1. Kind of data set: self-cleavage, relative activity (ratio to wild type); higher = more cleavage; in vitro, sequencing. The method, boiled down: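 Libraries of CPEB3 self-cleaving ribozyme mutants came from rounds of error-prone PCR and carried barcodes, which DNA sequencing matched to variants. In vitro transcription used T7 RNA polymerase at 37°C for 5 hours, with a further 15 min in DNase I before EDTA stopped the reaction; the ribozymes cleaved during both steps. The RNA was reverse transcribed with template switching and sequenced on Illumina. Relative activity is the cleaved/total read fraction of a variant divided by that of the unmutated ribozyme, averaged over three batches with at least 5 reads.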
For the variant AAACAGGGGGCCACAGCAGAAGCGUUCACGUCGCGGCCCCUGUCAGAUUCUGGUGUAUCUGCGAAUUCUGCUGUAUAUCUC [U1A A35G A56U], the self-cleavage was 1.21.
AAACAGGGGGCCACAGCAGAAGCGUUCACGUCGCAGCCCCUGUCAGGUUCCGGUGAAUCUGCGAAUUCUGCUGUAUAUCUC [U1A A47G U51C]: the self-cleavage was determined as 0.58.
As to AAACAGGGGGCCACAGCAGAAGCGUUCACGUCGCAGCCCCUGUCAGAUUCUGGUGAGUCUGCGAAUUCUGCUGUAUUUCUC [U1A A57G A77U], the self-cleavage is 1.15.
Turning to AAACAGGGGGCCACAGCAGAAGCGUUCACGUCGCUGCCCCCGUCAGAUUCUGGUGAAUCUGCGAAUUCUACUGUAUAUUUC [U1A A35U U41C G70A C79U], the self-cleavage amounted to 0.21.
The value for AAACAGGGGGGUACAGCAGAAGCGUUCACGUCGCAGCCCCUGUCAGAUUCUGGUGGAUCUGCGAAUUCCGCUGUAUAUCUC [U1A C11G C12U A56G U69C] was 0.12.
The value for AAACAGGGGGCCACAGCAGAAGCGUUCGCGUCGCAGCCCCUGUCAGAUCCUGGUGAAUCUGCGAAUUCUGCUGUAUAUCUC [U1A A28G U49C] was 0.18; that for AAACAGGGGGCCACAGCAGAAGCGUUCACGUCGCAGCCCCUGUCAGGUUCUGGUGAGUCUGCGAAUUCUGCUGUACAUCUC [U1A A47G A57G U76C] was 0.45; that for AAACAGGGGGCCACAGCAGUAGCGUUCACGUCGCAGCCCCUGUCAGAUACUGGUGAAUCUGCUAAUUCUGCUGUAUAUCAC [U1A A20U U49A G63U U80A] was 0.13.
Next, AAACAGGGGGCCACAGCAGAAGCGUUCACGUCGCGGCCCCUGUCAGAUUCUGGUGAAUCUGCGGAUUCUGCUGUAUAUCCC [U1A A35G A64G U80C]: 1.28.
Consider AAACAGGGGGACACAGCAGAAGCGUUCGCGUCGCAGCCCCUGUCAGAUUCUGGUGAGUCUGCGUAUUCUGCCGUAUAUCUC [U1A C11A A28G A57G A64U U72C], for which the self-cleavage is 0.09.
Regarding AAACAGGGGGCCACAGCAGAAGCGUUCACGUCGCAGCCCCUGUCAGAUUCUGGUGGAUCUGCGAAAUUUGCUGUAUAUCUC [U1A A56G U66A C68U], the self-cleavage stood at 0.23.
For AAACAGGGGGCCACAGCAGAUGCGUUCACGUCGCUGCCCCUGUCAGAUUCUGGUGAACCCGCGAAUUCUGGUGUAUAUCUC [U1A A21U A35U U58C U60C C71G], the self-cleavage stood at 0.04.
Regarding AAAAAGGGGGCCACUGCAGAAGCGUUCACGUUGCAGCCCCUGUCAGAUUCUGGUGAUUCUGCGAAUUCUGCCGUAUAUCUC [U1A C4A A15U C32U A57U U72C], the self-cleavage is 0.32.
The value for AAACAGGGGGCCACAGCAGAAGCGUUCACGUCGCAGCCCCUGUCGGAUUCUGGUGAAUCAGCGAAUACUGCUGCAUAUCUC [U1A A45G U60A U67A U74C] was 0.24; that for AAACAGGGGGCCACAGCAGAGGCGUUCACGCCGCAGCCCCUGUCAGAUUCUGGUGAAUCUGCGAGUUCUGCUGUAUAUCUC [U1A A21G U31C A65G] was 0.08.
The value for AAACAGGGGGCCACAGCAGAAGCGUUCGCGUCGCAGCCCCAGUCGGAUUCUGGUGAAUCUGCGAAUUCUGCUGUAUAUCUC [U1A A28G U41A A45G] was 0.4; that for AAACAGGGGGCCACAGCAGAGGCGUUCACGUCGCAGCCCCUUUCAGAUUCUGGUGGAUCUGCGAAUUCUGCUGUAUAUCUC [U1A A21G G42U A56G] was 0.12.
For the variant AAACAGGGGGCCACAGCAGAAGCGUUCGCGUCGCCGCCCCUGUCAGAUUCUGGUGAAUCUGCGAACUCUGCUGUAUAUCUC [U1A A28G A35C U66C], the self-cleavage was determined as 0.11.
The value for AAACAGGGGGCCACAGCAGAGGCGUUUACGUCGCAGCCCCUGUCAGAUUCUGGCGAAUCUGCGAAUUCUGCUGUAUAUCUC [U1A A21G C27U U54C] was 0.36; that for AAACAGGGGGCCACAGCAGAAGCGUUCACGUCGCAGCCCCUGUCGGAUUCUGGUGAAUCUGCGUAUUCUGCUGUAUAUCUC [U1A A45G A64U] was 0.21.
Next, AAACAGGGGGCCACAGCAGAAGCGUUCUCGUCGCAGCCCCAGACAGAUUCUGGUGAAUCUGCGAAUUCUGCUGUAUAUCUC [U1A A28U U41A U43A]: 0.06.
Regarding AAAUAGGGGGCCACAGCAGAGGCGUUCACGUCGCAGCCCCAGUCAGAUUCUGGUGAGUCCGCGAAUUCUGCUGUAUAUCUC [U1A C4U A21G U41A A57G U60C], the self-cleavage is 0.16.
Next, AAACAGGGGGCCACAGCAGAGGCGUUCACGUCGCAGCCCCUGUCGGAUUCUGGUGAAACUGCGAAUUCUGCUGUAUAUCCC [U1A A21G A45G U58A U80C]: 0.08; AAACAGGGGGCCACAGCAGUAGCGUUCACGUCGCAGCCCCUGUCAGAUUCUGGUGAAUCCGUGAAUUCUGCUGUAUAUCUC [U1A A20U U60C C62U]: 0.1.
Consider AAAUAGGGGGCCACAGCAGAAGCGUUCACGUCGCAGCCCCUGUCGGAUUCUGGUGAAUCUGUGAACUCUGCUGUAUAUCUC [U1A C4U A45G C62U U66C], for which the self-cleavage was 0.37.
Turning to AAACAGGGGGCCACAGCAGAAGCGUUCACGUCGCAGCCCCUGUCAGAUUCUGGUGUAUCUGCGAAUUCUGCAGUAUAUCUC [U1A A56U U72A], the self-cleavage is 0.46.
The value for AAACAGGGGGCCACAGCAGAAGCGUUCACGUCGCAGCCCCUGUCAGAUUCUGGUGGAUCUGCGGAAUCCGCUGUAUAUCUC [U1A A56G A64G U66A U69C] was 0.15.
The value for AAACAGGGGGCCACAGCAGAUGCGUUCACGUCGCAGCCCCUGUCAGAUUCUGGUGAGUCUGCGAAUCCUGCUGUAUAUCUC [U1A A21U A57G U67C] was 0.11.
Consider AAACAGGGGGCCACAGCAGAAGCGUUCACGUCGCGGCCCCUGUCAGACUCUGGUGAAUCAGCGAAUUCUGCUGUAUAUCUC [U1A A35G U48C U60A], for which the self-cleavage stood at 0.45.
On to AAACAGGGGGCCACAGCAGAAGCGUUCACGUCGCAGCCCCUGUCGGAUUCUGGUGAAUCUGCGAAUUCUGCUGUAUAACUC [U1A A45G U78A], for which the self-cleavage was 0.57.
Next, AAACAGGGGGCCACAGCAGAAGCGUUCGCGUCGCAGCCCCUGUCAGAUUCUGGAGAAUCUGCGAAUUCUGCUGUAUAUCUC [U1A A28G U54A]: 0.54.
With AAACAGGGGGCCACAGCAGUAGCGCUCACGUCGCGGCCCCUGUCAGAUUCAGGUGAAUCUGCGAAUUCUGCAGUAUAUCUC [U1A A20U U25C A35G U51A U72A], the self-cleavage amounted to 0.13.
The value for AAACAGGGGGCCACAGCAGAGGCGUUCACGUCGCAGCCCCAGUCAGGUUCUGGUGAAUCUGCGAGUUCUGCUGUAUAUCUC [U1A A21G U41A A47G A65G] was 0.2; that for AAACAGGGGGCCACAGCAGUAGCGUUCACGUCGCAGCCCCUGUCAGAUUCUGGUGAAUCCGCGAAUUCUGCAGUAUAUCUC [U1A A20U U60C U72A] was 0.14.
